Laboratory results published in the supplement of paper PMC3334620.
In all, about 33,000 sequences were measured (“E-score (-0.5 to 0.5)”: median about -0.043, highest 2% from about 0.37 on). Some of the results follow.

Target: T1, Upc2 (UniProt Q12151)
T1 sequence: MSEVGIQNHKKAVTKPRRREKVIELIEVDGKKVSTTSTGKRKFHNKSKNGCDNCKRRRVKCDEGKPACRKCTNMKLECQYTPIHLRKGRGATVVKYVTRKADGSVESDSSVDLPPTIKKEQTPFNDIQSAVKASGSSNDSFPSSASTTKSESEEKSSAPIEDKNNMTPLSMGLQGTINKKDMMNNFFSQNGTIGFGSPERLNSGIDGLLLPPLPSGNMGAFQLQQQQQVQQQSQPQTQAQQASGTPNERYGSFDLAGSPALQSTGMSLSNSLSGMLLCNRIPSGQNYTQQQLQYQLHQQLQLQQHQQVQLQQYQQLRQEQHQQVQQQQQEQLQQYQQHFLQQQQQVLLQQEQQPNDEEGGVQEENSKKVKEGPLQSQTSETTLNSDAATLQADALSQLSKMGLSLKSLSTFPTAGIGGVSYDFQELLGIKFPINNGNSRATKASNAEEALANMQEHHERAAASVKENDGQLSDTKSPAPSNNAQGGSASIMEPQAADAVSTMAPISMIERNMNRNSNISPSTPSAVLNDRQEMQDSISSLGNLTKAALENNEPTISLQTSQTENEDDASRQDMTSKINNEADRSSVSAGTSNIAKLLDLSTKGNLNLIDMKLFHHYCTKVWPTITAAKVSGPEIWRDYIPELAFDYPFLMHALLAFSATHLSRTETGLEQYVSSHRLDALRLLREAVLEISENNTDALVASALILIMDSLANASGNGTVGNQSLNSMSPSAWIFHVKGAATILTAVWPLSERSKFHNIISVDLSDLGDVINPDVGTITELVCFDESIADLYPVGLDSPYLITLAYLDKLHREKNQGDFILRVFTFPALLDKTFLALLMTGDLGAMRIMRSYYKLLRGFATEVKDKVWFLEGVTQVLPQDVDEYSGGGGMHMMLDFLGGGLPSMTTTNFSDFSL
Assay: PBM E-score (8-mer binding enrichment) (E-score (-0.5 to 0.5)); higher = stronger / more preferred TF binding; most listed sequences are background and not binding sites
Settings: protein concentration: 200 nM; construct: GST-full length
Procedure: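 Universal 'all 10-mer' protein binding microarrays (Agilent AMADID 015681) probed with GST-tagged S. cerevisiae TFs (full-length or DBD) made by in vitro transcription/translation (PURExpress), about 100-200 nM. Bound TF was detected with fluorescent anti-GST. Each ungapped 8-mer (which stands for itself and its reverse complement) is scored by the PBM enrichment score (E-score), a modified Wilcoxon-Mann-Whitney statistic from -0.5 to +0.5, computed with the Universal PBM Analysis Suite. Scale: above 0.35 generally sequence-specific binding.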

| Sequence | PBM E-score |
| --- | --- |
| AAGAATCA | -0.103 |
| GCGTGTCC | -0.0381 |
| ACACATGT | 0.058 |
| CATTCAGA | -0.287 |
| ATCCGCTA | 0.0682 |
| ACTACTTG | -0.241 |
| ATTTCTAC | 0.181 |
| GCACGTGA | -0.0226 |
| AACTTAAC | 0.191 |
| GAAGCACA | -0.111 |
| CAATCCCG | -0.116 |
| ATACCGTG | -0.0415 |
| CCCCGGGG | 0.0309 |
| GCACTCAA | -0.142 |
| ACCCCGGA | -0.106 |
| TGTACACA | 0.0892 |
| ATTAAGAC | 0.0381 |
| CCTGATTC | -0.124 |
| ATATCACG | -0.114 |
| CGCATAAA | 0.191 |
| AAAGGATT | -0.226 |
| CAACCACA | -0.0947 |
| CTGACAAA | -0.0299 |
| AAAAGGCA | -0.0264 |
| AAAGTGCT | -0.224 |

| Sequence | PBM E-score |
| --- | --- |
| AGCACCGA | 0.0328 |
| ATACTGGA | 0.0354 |
| AACGTACT | 0.196 |
| TCCAATAA | -0.0391 |
| AAGGCAAT | -0.0265 |
| ATAGCCTG | -0.148 |
| AAGCCCAG | -0.198 |
| GGTGTTGA | -0.212 |
| CGCCCCGC | 0.0186 |
| ACATAGAC | -0.0261 |
| ACACATCC | -0.037 |
| GACTGCAA | -0.294 |
| AAAACCTC | -0.0808 |
| CGCCCTGC | -0.0784 |
| GAGGGAGA | -0.16 |
| ATTAAGCA | -0.137 |
| CAGTGCTC | -0.0113 |
| TCGGTGAA | 0.129 |
| AAGCTTAC | 0.0517 |
| TAACATGA | -0.128 |
| AGCCTACG | 0.0978 |
| CATTGGAC | -0.169 |
| CGTAAATC | 0.352 |
| CGAGGTTA | 0.0876 |
| CCTTTTTA | 0.0606 |

| Sequence | PBM E-score |
| --- | --- |
| TGAGGCCA | -0.00759 |
| ACTGTGCA | -0.00243 |
| CGGGGTGA | -0.0566 |
| AGCGAGGC | 0.296 |
| AAGCGTAC | 0.245 |
| ATAGGATG | 0.102 |
| AATCTATA | 0.171 |
| GCGAGTTA | 0.116 |
| CAGCTTCG | 0.0472 |
| GACTTCGA | -0.111 |
| CGCAACCG | 0.182 |
| GATTTAGA | -0.0125 |
| CACGTACA | 0.272 |
| AGTCCGCC | -0.164 |
| ATAGTAAG | 0.0249 |
| GCTCAGGA | 0.0183 |
| AAAGTGTT | 0.0836 |
| ACGAAGTA | 0.345 |
| CGTTTTAG | 0.134 |
| GGACCACA | -0.0517 |
| AGGTTCCA | -0.264 |
| AATGCGGT | -0.165 |
| CCTCCAGA | -0.249 |
| AGGCAGAT | -0.223 |
| ACTCGGGG | -0.212 |

| Sequence | PBM E-score |
| --- | --- |
| GGACTGTA | -0.147 |
| ACATCGCT | -0.0124 |
| CGGCAAAC | 0.193 |
| AAGAGAAG | -0.0211 |
| AGCGTTGC | -0.0771 |
| TAATCGCA | 0.173 |
| AGTCAGAG | -0.252 |
| CAACGGCG | -0.102 |
| AGTGTTGC | -0.0649 |
| GGAGTCCA | -0.125 |
| TAATTAAA | 0.0197 |
| ATCATTGG | -0.123 |
| CATCCCTC | -0.182 |
| TAAATGCA | 0.0283 |
| CAAGTGAA | -0.0871 |
| TGAACGAA | 0.458 |
| ATACACCC | -0.0137 |
| ACTCACCC | -0.256 |
| ACTCCGCC | -0.347 |
| TAGAACGA | 0.383 |
| AATATGTA | -0.0108 |
| AGGTTCGC | 0.0522 |
| ACGACAGG | 0.359 |
| ATACCCCC | -0.141 |
| CGGGAAAC | 0.196 |

| Sequence | PBM E-score |
| --- | --- |
| AGGCTCAG | -0.182 |
| CCTAGGTA | -0.196 |
| GGCGGAAA | -0.0651 |
| CCCAGACG | -0.0246 |
| ACTCTGAG | -0.171 |
| CGGTCGTC | 0.0119 |
| ACCATGGT | 0.0532 |
| CCCCTTTA | -0.129 |
| CCCCCACC | -0.264 |
| ATACTCTC | 0.0884 |
| CACGGGAA | -0.159 |
| GAGAACCA | -0.0565 |
| ACAGCCAC | -0.272 |
| CACCCTGG | -0.21 |
| CCTCATGC | -0.315 |
| AGGGCACT | -0.15 |
| ATCTCTTG | -0.3 |
| CTCCCATA | -0.167 |
| GCTACGCC | -0.18 |
| GAGGGAAA | -0.13 |
| ATTGCAGA | -0.073 |
| CCGTAACC | 0.194 |
| AGAGGAGC | -0.0687 |
| AACAGTTA | -0.135 |
| CCGCGAAC | 0.0928 |

| Sequence | PBM E-score |
| --- | --- |
| ACGCGCCG | 0.159 |
| AATCCATG | -0.252 |
| AAATTCAT | -0.122 |
| ATCGTCCG | -0.101 |
| ACTTCATG | -0.14 |
| CACCCGTA | 0.254 |
| ACCCCTAC | -0.221 |
| AATAGGTG | -0.0824 |
| CTTGGACA | -0.134 |
| AGCCCTAT | -0.174 |
| CTTACACC | 0.0562 |
| AAAAACAT | 0.0671 |
| GACCAAAC | 0.0844 |
| TAGTCCGA | 0.0309 |
| GCTCAGCA | 0.0843 |
| AAGTATTA | -0.141 |
| ACACCCGC | -0.113 |
| CCTGAGGA | -0.0922 |
| CAAGTGGA | -0.308 |
| AAACTTTA | -0.0184 |
| AGCCGGAT | -0.119 |
| AATCTGGT | -0.093 |
| CACAACAA | 0.0905 |
| CGTACTAC | 0.327 |
| GAAACTTA | 0.0588 |

| Sequence | PBM E-score |
| --- | --- |
| CGTAGAAA | 0.282 |
| AGTTTTTA | 0.192 |
| AGGAAGCA | -0.101 |
| AGATTCAT | -0.263 |
| CAGTCGCC | -0.196 |
| TGAACCCA | -0.0696 |
| GCTTCGAC | -0.201 |
| ACGTAGGG | -0.147 |
| ATAGGCTG | -0.0822 |
| AGTCAGGG | -0.253 |
| AGCCTTGC | -0.0435 |
| ACTATGTC | -0.106 |
| CCAAATGG | -0.176 |
| CGGTTCGC | 0.0718 |
| AAGGCGTA | 0.097 |
| CGAGCAGC | 0.0843 |
| GAGGATCA | -0.228 |
| GTGGTTGA | -0.0855 |
| AGATGGAA | -0.117 |
| AATTTAGT | 0.00405 |
| TGCGGCCA | -0.216 |
| GCCCCTTA | 0.0748 |
